{"source": "PubChem BioAssay AID624202", "about": "(National Center for Advancing Translational Sciences (NCATS), 2012)", "note": "Out of some 380,000 compounds screened, about 4,000 (1.1%) were called active. The inconclusive results got no clear call from the source; some entries with a clear call stand among them for comparison. Calls follow the shape of the dose curve; as a rule, active = well fitted activation curve with a large enough effect; inconclusive = small, poorly fitted or top-dose-only effect; inactive = no such curve, though single readings can be large or run the other way. Potencies beside an inconclusive call are fits to weak or partial responses and may not hold up. Potency is read from the fitted curve at half-maximal effect; tags tell the direction and shape of the fitted curve."}
{"assay": "qHTS Assay to Identify Small Molecule Activators of BRCA1 Expression; also: nearly all actives have a fitted effect of over 80% in size", "settings": "MCF7-BRCA1-FFLuc reporter, luminescence, 48 h; activation: at 46.1 µM (top of the series), scaled: vehicle 0%, 10 µM genistein 100% unless noted", "how_it_was_run": "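Reporter cells (MCF7, BRCA1 promoter-firefly luciferase) received library compounds across a concentration series for 48 h. End-point luminescence was measured and concentration-effect curves derived after normalization.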"}
{"smiles": "C/C(N)=C(/C#N)C(=O)CSc1ccccc1F", "Potency": "inconclusive: 10 µM [activator, partial curve, poor fit]"}
{"smiles": "COc1cccc(NC(=O)C(=O)NCC2CCCN2S(=O)(=O)c2ccccc2)c1", "note": "(stereo not given)", "Potency": "inconclusive: 12.6 µM [activator, partial curve, poor fit]"}
{"smiles": "CCc1ccc(NC(=S)Nc2ccc3cn[nH]c3c2)cc1", "Potency": "inconclusive: 20 µM [activator, partial curve, poor fit]"}
{"smiles": "O=C(O)c1cccc(Nc2nc(-c3cccnc3)nc3ccccc23)c1", "Potency": "inconclusive: 22.4 µM [activator, single point]"}
{"smiles": "Nc1ccc(-c2nc3cc([N+](=O)[O-])ccc3o2)cc1", "Potency": "inconclusive: 3.98 µM [activator, full curve, poor fit]"}
{"smiles": "CCCCOC(=O)Nc1ccc(C(=O)OC)cc1", "Potency": "inconclusive: 14.1 µM [activator, single point]"}
{"smiles": "O=C(Nc1ccc2c(c1)OCO2)c1ccc2nc[nH]c2c1", "Potency": "active: 5.62 µM"}
{"smiles": "CC(=O)N1N=C(c2ccc(C)cc2)CC1c1ccc2c(c1)OCO2", "note": "(stereo not given)", "Potency": "active: 4.47 µM"}
{"smiles": "COc1ccc(NC(=S)NC(=O)c2ccccc2Cl)cc1", "Potency": "active: 12.6 µM"}
{"smiles": "CN(CC(=O)Nc1ccc(Cl)c(C(F)(F)F)c1)S(=O)(=O)c1cnc[nH]1", "Potency": "inactive"}
{"smiles": "Cc1c(NC(=O)C(C)(C)Oc2ccc(Cl)cc2)cccc1-c1nc2ncccc2o1", "Potency": "inactive"}
{"smiles": "N#Cc1ccc(C2=CC(=O)C[C@H](c3ccc4c(c3)OCO4)C2)cc1", "Potency": "inactive"}
{"smiles": "COc1ccc2c(c1)O/C(=C\\c1ccccc1O)C2=O", "Potency": "active: 12.6 µM"}
{"smiles": "Cc1cc(O)c(/C=N/Nc2cccc(Cl)c2)c(=O)o1", "Potency": "inactive"}
{"smiles": "COc1ccccc1OCc1cc(-c2ccccc2)no1", "Potency": "active: 2.82 µM"}
{"smiles": "O=C(Nc1ccc(Nc2ccccc2)cc1)Nc1ccccc1Cl", "Potency": "inconclusive: 12.6 µM [activator, partial curve, poor fit]"}
{"smiles": "Cc1cc(NC(=O)c2cccc(Cl)c2)n[nH]1", "Potency": "active: 3.98 µM"}
{"smiles": "CS(=O)(=O)c1ccc2nc(NC(=O)Nc3ccccc3F)sc2c1", "Potency": "inconclusive: 0.316 µM [activator, full curve, poor fit]"}
{"smiles": "COc1cccc(/C(C)=N/N=C(\\C)c2cccc(OC)c2)c1", "Potency": "active: 3.16 µM"}
{"smiles": "Cc1ccc(OC(=O)NC2CCS(=O)(=O)C2)cc1C", "note": "(stereo not given)", "Potency": "inactive"}
{"smiles": "Cc1ccc(OC(=O)COc2ccccc2)c(-n2nc3ccccc3n2)c1", "Potency": "inconclusive: 15.8 µM [activator, partial curve, poor fit]"}
{"smiles": "CCCOc1ccc(N2C(=O)CC(N(O)c3ccccc3)C2=O)cc1", "note": "(stereo not given)", "Potency": "inconclusive: 7.94 µM [activator, partial curve, poor fit]"}
{"smiles": "CCCOc1ccc(-c2nc(=S)[nH][nH]2)cc1", "Potency": "active: 3.55 µM"}
{"smiles": "Cc1noc(C)c1C(=O)Nc1nc2ccccc2s1", "Potency": "active: 6.31 µM"}
{"smiles": "O=C(/C=C/c1ccc2c(c1)OCO2)c1ccc(F)cc1", "Potency": "inactive"}
{"smiles": "COc1ccc2[nH]c(=O)c(-c3nnn(-c4ccccc4)n3)cc2c1", "Potency": "inconclusive: 17.8 µM [activator, single point]"}
{"smiles": "COC(=O)c1c(C)[nH]c(C(=O)/C=C/c2ccccc2)c1C", "Potency": "inconclusive: 1 µM [activator, full curve, poor fit]"}
{"smiles": "O=C(NCCOc1ccccc1F)c1cc(F)c(F)cc1Cl", "Potency": "inconclusive: 1 µM [activator, full curve, poor fit]"}
{"smiles": "Cc1ccc2c(CN3CCCCC3)cc(=O)oc2c1C", "Potency": "inconclusive: 14.1 µM [activator, partial curve, poor fit]"}
{"smiles": "COC(=O)[C@@]12CCCCN1[C@H](c1ccc(-c3cccc(Cl)c3)cc1)[C@H]1C(=O)N(C)C(=O)[C@H]12", "Potency": "inactive"}
{"smiles": "CC1CCC(NC(=O)c2cccn2C)CC1", "note": "(stereo not given)", "Potency": "inconclusive: 1.12 µM [activator, full curve, poor fit]"}
{"smiles": "O=[N+]([O-])c1c(Nc2ccccc2O)ccc2nonc12", "Potency": "inactive"}
{"smiles": "C/C(=N\\NC(=O)OC(C)(C)C)c1ccccc1Br", "Potency": "inconclusive: 35.5 µM [activator, single point]"}
{"smiles": "COc1ccccc1NC(=O)c1ccccc1NS(=O)(=O)c1cccs1", "Potency": "inactive"}
{"smiles": "COc1ccc(OCCSc2ncnc3nc[nH]c23)cc1", "Potency": "inconclusive: 35.5 µM [activator, single point]"}
{"smiles": "CCCCN(CC)C(=O)c1cc2cc3ccc(OC)cc3nc2o1", "Potency": "inconclusive: 7.94 µM [activator, partial curve, poor fit]"}
{"smiles": "C/C(=N\\NC(=O)c1cccc(O)c1)c1cccc(NC(=O)c2ccc(F)cc2)c1", "Potency": "active: 3.98 µM"}
{"smiles": "CN(C)c1ccc2c(c1[N+](=O)[O-])Cc1ccccc1-2", "Potency": "inconclusive: 14.1 µM [activator, partial curve, poor fit]"}
{"smiles": "CCOc1cc2c(cc1O)C(=NO)CC1C2CCC2(C)C(O)CCC12", "note": "(stereo not given)", "activation": "inconclusive: -81.7% [activator]"}
{"smiles": "COc1ccc(-c2nnc(NC(=O)c3ccco3)s2)cc1", "Potency": "inconclusive: 7.94 µM [activator, partial curve, poor fit]"}
{"smiles": "O=C(Nc1cccc(-c2nnc(-c3ccccc3)o2)c1)C1CC1", "Potency": "active: 8.91 µM"}
{"smiles": "Oc1ccc(/C=C/c2cc(O)cc(O)c2)cc1", "Potency": "active: 12.6 µM"}
{"smiles": "O=C(N/N=C/c1cccc([N+](=O)[O-])c1)c1ccc(Br)cc1", "Potency": "inactive"}
{"smiles": "Cc1cc2ncc(-c3ccc(Cl)cc3)cn2n1", "Potency": "inconclusive: 1.41 µM [activator, full curve, poor fit]"}
{"smiles": "O=C(N[C@H]1CC1c1ccccc1)c1ccc([N+](=O)[O-])cc1", "note": "(stereo not given in full)", "Potency": "inconclusive: 1.58 µM [activator, full curve, poor fit]"}
{"smiles": "O=C(Nc1nnc(-c2cccnc2)s1)c1cccs1", "Potency": "inconclusive: 35.5 µM [activator, single point]"}
{"smiles": "O=C(CCSc1ccccc1Cl)Nc1cccc([N+](=O)[O-])c1", "Potency": "inconclusive: 28.2 µM [activator, single point]"}
{"smiles": "Cc1cc(OCC(O)CN2CCCC2)cc(C)c1Cl", "note": "(stereo not given)", "Potency": "inactive"}
{"smiles": "CCCOC(=O)c1ccc(NC(=O)C(CC)CC)cc1", "Potency": "inconclusive: 20 µM [activator, partial curve, poor fit]"}
{"smiles": "Cc1ccc(C(=O)NC2CCCCCC2)o1", "Potency": "inconclusive: 35.5 µM [activator, single point]"}
{"smiles": "CCCN(C)C1CN(Cc2cn(Cc3ccc(F)cc3)nn2)S(=O)(=O)C1", "note": "(stereo not given)", "Potency": "inactive"}
{"smiles": "CCCc1ccc(OC(=O)c2ccc(O)cc2Cl)cc1", "Potency": "inconclusive: 1.12 µM [activator, full curve, poor fit]"}
{"smiles": "Cc1cc(C)c2sc(NC(=O)C3=COCCO3)nc2c1", "Potency": "inconclusive: 1.78 µM [activator, full curve, poor fit]"}
{"smiles": "COc1ccc(C(C(=O)NC2CCCC2)N(C(=O)c2snc(-c3ccc(F)cc3)c2N)c2cccc(F)c2)cc1", "note": "(stereo not given)", "Potency": "inactive"}
{"smiles": "O=c1ccc2ccc(OCc3nnc(-c4ccccc4Br)o3)cc2o1", "Potency": "inconclusive: 35.5 µM [activator, single point]"}
{"smiles": "Cc1ccc(-c2nc(Nc3cccc(C)c3)sc2CC(=O)O)cc1", "Potency": "inconclusive: 15.8 µM [activator, single point]"}
{"smiles": "Cc1ccc2nc(-c3cccc(N)c3)oc2c1", "Potency": "inconclusive: 2.24 µM [activator, partial curve, poor fit]"}
{"smiles": "C=CC[C@@H](CC(=O)N[C@@H](CO)Cc1ccccc1)C(=O)NC[C@H](OC(=O)[C@@H](CC=C)Cc1ccc(F)cc1)c1ccccc1", "Potency": "inactive"}
{"smiles": "COc1ccc(NC(=O)c2c(NC(=O)CCC(=O)O)sc(-c3ccccc3)c2C)cc1", "Potency": "inactive"}
{"smiles": "Cn1c(SCc2ccc(F)cc2)nnc1-c1ccccn1", "Potency": "active: 4.47 µM"}
{"smiles": "O=C(CCCc1ccncc1)c1ccccc1", "Potency": "active: 3.98 µM"}
{"smiles": "CCC(=O)N1N=C(c2ccc(NS(C)(=O)=O)cc2)CC1c1ccc(N(C)C)cc1", "note": "(stereo not given)", "Potency": "inconclusive: 11.2 µM [activator, partial curve, poor fit]"}
{"smiles": "COc1cccc(OC)c1C(=O)NNC(=O)c1cccc(COc2ccc3c(c2)CCC3)c1", "activation": "inconclusive: -60.5% [activator]"}
{"smiles": "COc1ccc2nc(SCc3ccccc3C)nc(C)c2c1", "Potency": "inconclusive: 35.5 µM [activator, single point]"}
{"smiles": "COc1cccc(OCc2cc(C(=O)NC3CCOCC3)no2)c1", "Potency": "inconclusive: 17.8 µM [activator, partial curve, poor fit]"}
{"smiles": "Cc1ccnc(Nc2nc(-c3ccc(O)cc3)cs2)c1", "Potency": "inconclusive: 2.51 µM [activator, full curve, poor fit]"}
{"smiles": "O=C(c1ccccc1)c1ccc2ccccc2c1", "Potency": "inactive"}
{"smiles": "COc1ccc(C2C3=C(CC(C)(C)CC3=O)Nc3c2c(=O)n(C)c(=O)n3C)cc1OC", "note": "(stereo not given)", "Potency": "inactive"}
{"smiles": "O=C(NC(=S)NC1CCCCC1)c1ccccc1", "Potency": "inconclusive: 7.94 µM [activator, partial curve, poor fit]"}
{"smiles": "CC(=O)c1ccc(Oc2ccc(C(C)=O)cc2)cc1", "Potency": "inconclusive: 7.08 µM [activator, partial curve, poor fit]"}
{"smiles": "CCCC(=O)N1c2ccc(-c3csc(N)n3)cc2CC1C", "note": "(stereo not given)", "Potency": "inconclusive: 1 µM [activator, full curve, poor fit]"}
{"smiles": "Cc1ccc(S(=O)(=O)N2CCC(C)CC2)cc1", "Potency": "inactive"}
{"smiles": "COc1ccc(/C=N/Nc2ccccn2)cc1O", "Potency": "inconclusive: 6.31 µM [activator, full curve, poor fit]"}
{"smiles": "O=C(CCCC(=O)c1ccc(O)cc1)c1ccc(O)cc1", "Potency": "inconclusive: 7.08 µM [activator, partial curve, poor fit]"}
{"smiles": "O=C(N/N=C/C(Br)=C/c1ccccc1)c1ccccc1F", "Potency": "inconclusive: 1.41 µM [activator, full curve, poor fit]"}
